Legend:
[1] = tested on: HCC1954 basal breast cancer cell line; conditions: read-out: Cell Line GI50 Range HCC-1954, SRB assay, 5 days
[2] = tested on: MCF-7 luminal breast cancer cell line; experiment: cells; conditions: Homo sapiens, MCF7, 120 h, read-out: Cell Line GI50 Range MCF-7
[3] = tested on: MDA-MB-468 basal breast cancer cell line; experiment: cells; conditions: Homo sapiens, MDA-MB-468, 120 h, read-out: Cell Line GI50 Range MDA-MB-468, MDA-MB-468 basal breast cancer cell line; SRB assay, 5 days
[4] = tested on: SW620 colon cancer cell line; experiment: cells; conditions: Homo sapiens, SW-620, 120 h, read-out: Cell Line GI50 Range SW-620
[5] = tested on: A549 lung cancer cell line; experiment: cells; conditions: Homo sapiens, A549, 120 h, read-out: Cell Line GI50 Range A-549
[6] = tested on: human mammary epithelial primary cells (HMEC); experiment: cells; conditions: 120 h, read-out: Cell Line GI50 Range HMEC
[7] = tested on: T47 D breast cancer cell line; experiment: cells; conditions: Homo sapiens, T47D, 120 h, read-out: GI50 Range, T47 D
[8] = tested on: MDA-MB-231 breast cancer cell line; experiment: cells; conditions: Homo sapiens, MDA-MB-231, 120 h, read-out: GI50 Range, MDA-MB-231
[9] = tested on: HS578T breast cancer cell line; experiment: cells; conditions: Homo sapiens, Hs-578T, 120 h, read-out: GI50 Range, HS578T
[10] = tested on: BT474 breast cancer cell line; experiment: cells; conditions: Homo sapiens, BT-474, 120 h, read-out: GI50 Range, BT474
[11] = tested on: SKBR3 breast cancer cell line; experiment: cells; conditions: Homo sapiens, SK-BR-3, 120 h, read-out: GI50 Range, SKBR3
[12] = tested on: H358 lung cancer cell line; experiment: cells; conditions: Homo sapiens, NCI-H358, 120 h, read-out: GI50 Range, H358
[13] = tested on: A172 brain cancer cell line; experiment: cells; conditions: Homo sapiens, A 172, 120 h, read-out: GI50 Range, A172
[14] = tested on: Hs683 brain cancer cell line; experiment: cells; conditions: Homo sapiens, Hs 683, 120 h, read-out: GI50 Range, Hs683
[15] = tested on: SK-N-SH brain cancer cell line; experiment: cells; conditions: Homo sapiens, 120 h, read-out: GI50 Range, SK-N-SH
[16] = tested on: Colo 205 colon cancer cell line; experiment: cells; conditions: Homo sapiens, COLO 205, 120 h, read-out: GI50 Range, Colo 205
[17] = tested on: HCT-15 colon cancer cell line; experiment: cells; conditions: Homo sapiens, HCT-15, 120 h, read-out: GI50 Range, HCT-15
[18] = tested on: HCT116+/− colon cancer cell line; experiment: cells; conditions: Homo sapiens, HCT-116, 120 h, read-out: GI50 Range, HCT116+/−
[19] = tested on: HCT116+/+ colon cancer cell line; experiment: cells; conditions: Homo sapiens, HCT-116, 120 h, read-out: GI50 Range, HCT116+/+
[20] = tested on: OVCAR-3 ovarian cancer cell line; experiment: cells; conditions: Homo sapiens, OVCAR-3, 120 h, read-out: GI50 Range, OVCAR-3
[21] = tested on: SK-OV-3 ovarian cancer cell line; experiment: cells; conditions: Homo sapiens, SK-OV-3, 120 h, read-out: GI50 Range, SK-OV-3
[22] = tested on: SW 626 ovarian cancer cell line; experiment: cells; conditions: Homo sapiens, SW626, 120 h, read-out: GI50 Range, SW 626
[23] = tested on: 518A2 melanoma cell line; experiment: cells; conditions: Homo sapiens, 518A2, 120 h, read-out: GI50 Range, 518A2
[24] = tested on: PC-3 prostate cancer cell line; experiment: cells; conditions: 120 h, read-out: GI50 Range, PC-3
[25] = tested on: 184A1 immortalized breast cell line; experiment: cells; conditions: 184A1, 120 h, read-out: GI50 Range, 184A1

## COc1ccc2c(c1)[C@]1(C[C@H]1c1ccc3c(-c4ccc(N5CCN(C)CC5)nc4)n[nH]c3c1)C(=O)N2 (relative stereo) [Example A13, (1R*,2S*)-5′-Methoxy-2-(3-(6-(4-methylpiperazin-1-yl)pyridin-3-yl)-1H-indazol-6-yl)spiro[cyclopropane-1,3′-indolin]-2′-one]
[1]
  GI50: 100 to 1000 nM
[2]
  GI50: < 100 nM
[3]
  GI50: 100 to 1000 nM
[4]
  GI50: < 100 nM
[5]
  GI50: < 100 nM
[6]
  GI50: > 10000 nM
[7]
  GI50: 1000 to 50000 nM
[8]
  GI50: < 100 nM
[9]
  GI50: 1000 to 50000 nM
[10]
  GI50: 1000 to 50000 nM
[11]
  GI50: 1000 to 50000 nM
[12]
  GI50: < 100 nM
[13]
  GI50: < 100 nM
[14]
  GI50: < 100 nM
[15]
  GI50: > 50000 nM
[16]
  GI50: < 100 nM
[17]
  GI50: 1000 to 50000 nM
[18]
  GI50: 1000 to 50000 nM
[19]
  GI50: 1000 to 50000 nM
[20]
  GI50: < 100 nM
[21]
  GI50: 1000 to 50000 nM
[22]
  GI50: 1000 to 50000 nM
[23]
  GI50: < 100 nM
[24]
  GI50: 1000 to 50000 nM
[25]
  GI50: 100 to 1000 nM

From patent publication US10358436B2, “Kinase inhibitors and method of treating cancer” (University Health Network, priority 2010, dated 2019)
